# Experimental data from the supplement of paper PMC8728848.
# The list shows a part of the results.
# B1: LgFlo1 (Saccharomyces pastorianus), B3IUA8 (protein)
# chain: SGSTQACLPVGSRKNGMNVNFYKYSLQDSTTYSDPQYMAYKYSDTKKLGSVSGQTHLSIYYGPNTAFWNTASWSSDLFGFYTTPTNVTVEMTGYFLPPQTGSYTFKFATVDDSAILSVGGSIAFECCAQEQPPITSTDFTINGIKPWDAATPTDIKGSTYMYAGYYYPIKIVYSNAKALARLPVSVVLPDGTEVNDDFEGYVYSFDDDLSQSNCTIPDPSKHTTS
# What was measured:
# Experiment in all cases: glycan array binding signal (z-score within array); higher = stronger binding
# Conditions in all cases: glycan notation: IUPAC condensed, linker removed
# [1] = target: Fuc(a1-2)[GalNAc(a1-3)]Gal(b1-3)GlcNAc(b1-3)GalNAc
# Method in brief: (§1)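 The Consortium for Functional Glycomics database supplied 3228 glycan arrays, of which those lacking an available protein sequence were dropped. The binding signal, a within-array Z-score, was averaged across arrays of the same protein sequence and across linkers. Negative scores can be read as non-binding.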
# [2] = target: Fuc(a1-2)[GalNAc(a1-3)]Gal(b1-3)GlcNAc(b1-6)GalNAc
# Method in brief: as §1
# [3] = target: Fuc(a1-2)[GalNAc(a1-3)]Gal(b1-4)Glc
# Method in brief: as §1
# [4] = target: Fuc(a1-2)[GalNAc(a1-3)]Gal(b1-4)GlcNAc
# Method in brief: as §1
# [5] = target: Fuc(a1-2)[GalNAc(a1-3)]Gal(b1-4)GlcNAc(b1-2)Man
# Method in brief: as §1
# [6] = target: Fuc(a1-2)[GalNAc(a1-3)]Gal(b1-4)GlcNAc(b1-2)Man(a1-3)[Fuc(a1-2)[GalNAc(a1-3)]Gal(b1-4)GlcNAc(b1-2)Man(a1-6)]Man(b1-4)GlcNAc(b1-4)GlcNAc
# Method in brief: as §1
# [7] = target: Fuc(a1-2)[GalNAc(a1-3)]Gal(b1-4)GlcNAc(b1-2)Man(a1-3)[Fuc(a1-2)[GalNAc(a1-3)]Gal(b1-4)GlcNAc(b1-2)Man(a1-6)]Man(b1-4)GlcNAc(b1-4)[Fuc(a1-6)]GlcNAc
# Method in brief: as §1
# [8] = target: Fuc(a1-2)[GalNAc(a1-3)]Gal(b1-4)GlcNAc(b1-3)Gal(b1-4)GlcNAc
# Method in brief: as §1
# [9] = target: Fuc(a1-2)[GalNAc(a1-3)]Gal(b1-4)GlcNAc(b1-3)Gal(b1-4)GlcNAc(b1-3)Gal(b1-4)GlcNAc
# Method in brief: as §1
# [10] = target: Fuc(a1-2)[GalNAc(a1-3)]Gal(b1-4)GlcNAc(b1-3)GalNAc
# Method in brief: as §1
# [11] = target: Fuc(a1-2)[GalNAc(a1-3)]Gal(b1-4)GlcNAc(b1-3)[Fuc(a1-2)[GalNAc(a1-3)]Gal(b1-4)GlcNAc(b1-6)]GalNAc
# Method in brief: as §1
# [12] = target: Fuc(a1-2)[GalNAc(a1-3)]Gal(b1-4)GlcNAc(b1-6)GalNAc
# Method in brief: as §1
# [13] = target: Fuc(a1-2)[GalNAc(a1-3)]Gal(b1-4)[Fuc(a1-3)]GlcNAc
# Method in brief: as §1
# [14] = target: Fuc(a1-2)[GalNAc(a1-3)]Gal(b1-4)[Fuc(a1-3)]GlcNAc(b1-3)GalNAc
# Method in brief: as §1
# [15] = target: Fuc(a1-2)[GalNAc(a1-4)]Gal(b1-4)GlcNAc
# Method in brief: as §1
# [16] = target: Fuc(a1-2)[GalNAc(b1-3)]Gal
# Method in brief: as §1
# Fuc(a1-3)GlcNAc = target: Fuc(a1-3)GlcNAc
# Method in brief: as §1
# [17] = target: Fuc(a1-3)[Gal(b1-4)]Glc6S
# Method in brief: as §1
# [18] = target: Fuc(a1-3)[Gal(b1-4)]GlcNAc
# Method in brief: as §1
# [19] = target: Fuc(a1-3)[Gal(b1-4)]GlcNAc(b1-2)Man
# Method in brief: as §1
# [20] = target: Fuc(a1-3)[Gal(b1-4)]GlcNAc(b1-2)Man(a1-3)[Fuc(a1-3)[Gal(b1-4)]GlcNAc(b1-2)Man(a1-6)]Man(b1-4)GlcNAc(b1-4)GlcNAc
# Method in brief: as §1
# [21] = target: Fuc(a1-3)[Gal(b1-4)]GlcNAc(b1-2)Man(a1-3)[Fuc(a1-3)[Gal(b1-4)]GlcNAc(b1-2)Man(a1-6)]Man(b1-4)GlcNAc(b1-4)[Fuc(a1-6)]GlcNAc
# Method in brief: as §1
# [22] = target: Fuc(a1-3)[Gal(b1-4)]GlcNAc(b1-3)Gal(b1-3)[Fuc(a1-4)]GlcNAc
# Method in brief: as §1
# [23] = target: Fuc(a1-3)[Gal(b1-4)]GlcNAc(b1-3)Gal(b1-4)[Fuc(a1-3)]GlcNAc
# Method in brief: as §1
# [24] = target: Fuc(a1-3)[Gal(b1-4)]GlcNAc(b1-3)Gal(b1-4)[Fuc(a1-3)]GlcNAc(b1-3)Gal(b1-4)[Fuc(a1-3)]GlcNAc
# Method in brief: as §1
# [25] = target: Fuc(a1-3)[Gal(b1-4)]GlcNAc(b1-3)GalNAc
# Method in brief: as §1
# [26] = target: Fuc(a1-3)[Gal(b1-4)]GlcNAc(b1-6)GalNAc
# Method in brief: as §1
# [27] = target: Fuc(a1-3)[Gal(b1-4)]GlcNAc(b1-6)[Gal(b1-3)GlcNAc(b1-3)]Gal(b1-4)Glc
# Method in brief: as §1
# [28] = target: Fuc(a1-3)[Gal(b1-4)]GlcNAc6S
# Method in brief: as §1
# [29] = target: Fuc(a1-3)[Gal3S(b1-4)]Glc
# Method in brief: as §1
# [30] = target: Fuc(a1-3)[Gal3S(b1-4)]GlcNAc
# Method in brief: as §1
# [31] = target: Fuc(a1-3)[Gal3S(b1-4)]GlcNAc6S
# Method in brief: as §1
# [32] = target: Fuc(a1-3)[GalNAc(b1-4)]GlcNAc
# Method in brief: as §1
# [33] = target: Fuc(a1-3)[GalNAc(b1-4)]GlcNAc6S
# Method in brief: as §1
# Fuc(a1-4)GlcNAc = target: Fuc(a1-4)GlcNAc
# Method in brief: as §1
# Fuc(b1-3)GlcNAc = target: Fuc(b1-3)GlcNAc
# Method in brief: as §1
# Gal(a1-2)Gal = target: Gal(a1-2)Gal
# Method in brief: as §1
# Gal(a1-3)Gal = target: Gal(a1-3)Gal
# Method in brief: as §1
# Gal(a1-3)Gal(b1-3)GlcNAc = target: Gal(a1-3)Gal(b1-3)GlcNAc
# Method in brief: as §1
# [34] = target: Gal(a1-3)Gal(b1-3)GlcNAc(b1-2)Man
# Method in brief: as §1
# [35] = target: Gal(a1-3)Gal(b1-3)GlcNAc(b1-2)Man(a1-3)[Gal(a1-3)Gal(b1-3)GlcNAc(b1-2)Man(a1-6)]Man(b1-4)GlcNAc(b1-4)GlcNAc
# Method in brief: as §1
# [36] = target: Gal(a1-3)Gal(b1-3)GlcNAc(b1-3)GalNAc
# Method in brief: as §1
# [37] = target: Gal(a1-3)Gal(b1-3)GlcNAc(b1-6)GalNAc
# Method in brief: as §1
# [38] = target: Gal(a1-3)Gal(b1-3)[Fuc(a1-4)]GlcNAc(b1-2)Man(a1-3)[Gal(a1-3)Gal(b1-3)[Fuc(a1-4)]GlcNAc(b1-2)Man(a1-6)]Man(b1-4)GlcNAc(b1-4)GlcNAc
# Method in brief: as §1
# Gal(a1-3)Gal(b1-4)Glc = target: Gal(a1-3)Gal(b1-4)Glc
# Method in brief: as §1
binder,measurement,setting,value
B1,glycan array binding signal (z-score),[1],-0.227
same,glycan array binding signal (z-score),[2],-0.33
same,glycan array binding signal (z-score),[3],-0.064
same,glycan array binding signal (z-score),[4],-0.337
same,glycan array binding signal (z-score),[5],-0.379
same,glycan array binding signal (z-score),[6],-0.075
same,glycan array binding signal (z-score),[7],0.204
same,glycan array binding signal (z-score),[8],-0.328
same,glycan array binding signal (z-score),[9],-0.234
same,glycan array binding signal (z-score),[10],-0.226
same,glycan array binding signal (z-score),[11],1.81
same,glycan array binding signal (z-score),[12],-0.114
same,glycan array binding signal (z-score),[13],0.711
same,glycan array binding signal (z-score),[14],-0.09
same,glycan array binding signal (z-score),[15],-0.156
same,glycan array binding signal (z-score),[16],-0.263
same,glycan array binding signal (z-score),Fuc(a1-3)GlcNAc,-0.276
same,glycan array binding signal (z-score),[17],-0.052
same,glycan array binding signal (z-score),[18],0.072
same,glycan array binding signal (z-score),[19],-0.224
same,glycan array binding signal (z-score),[20],-0.211
same,glycan array binding signal (z-score),[21],-0.108
same,glycan array binding signal (z-score),[22],-0.271
same,glycan array binding signal (z-score),[23],0.754
same,glycan array binding signal (z-score),[24],-0.157
same,glycan array binding signal (z-score),[25],-0.263
same,glycan array binding signal (z-score),[26],-0.202
same,glycan array binding signal (z-score),[27],-0.296
same,glycan array binding signal (z-score),[28],-0.17
same,glycan array binding signal (z-score),[29],-0.104
same,glycan array binding signal (z-score),[30],-0.201
same,glycan array binding signal (z-score),[31],0.042
same,glycan array binding signal (z-score),[32],-0.264
same,glycan array binding signal (z-score),[33],-0.382
same,glycan array binding signal (z-score),Fuc(a1-4)GlcNAc,1.75
same,glycan array binding signal (z-score),Fuc(b1-3)GlcNAc,0.111
same,glycan array binding signal (z-score),Gal(a1-2)Gal,-0.067
same,glycan array binding signal (z-score),Gal(a1-3)Gal,0.046
same,glycan array binding signal (z-score),Gal(a1-3)Gal(b1-3)GlcNAc,2.47
same,glycan array binding signal (z-score),[34],-0.127
same,glycan array binding signal (z-score),[35],0.576
same,glycan array binding signal (z-score),[36],-0.286
same,glycan array binding signal (z-score),[37],-0.259
same,glycan array binding signal (z-score),[38],0.35
same,glycan array binding signal (z-score),Gal(a1-3)Gal(b1-4)Glc,-0.306
